Out of some 310,000 compounds screened, about 2,200 (0.71%) showed an effect of 50% or more. The effect is printed as a negative number. Some of the results follow.
Biological target: human ether-à-go-go-related gene (hERG) potassium channel (human, UniProt Q12809)
Assay: primary screen, population patch clamp on CHO cells stably expressing hERG

human ether-à-go-go-related gene (hERG) potassium channel, sequence (Q12809 whole entry, looked up): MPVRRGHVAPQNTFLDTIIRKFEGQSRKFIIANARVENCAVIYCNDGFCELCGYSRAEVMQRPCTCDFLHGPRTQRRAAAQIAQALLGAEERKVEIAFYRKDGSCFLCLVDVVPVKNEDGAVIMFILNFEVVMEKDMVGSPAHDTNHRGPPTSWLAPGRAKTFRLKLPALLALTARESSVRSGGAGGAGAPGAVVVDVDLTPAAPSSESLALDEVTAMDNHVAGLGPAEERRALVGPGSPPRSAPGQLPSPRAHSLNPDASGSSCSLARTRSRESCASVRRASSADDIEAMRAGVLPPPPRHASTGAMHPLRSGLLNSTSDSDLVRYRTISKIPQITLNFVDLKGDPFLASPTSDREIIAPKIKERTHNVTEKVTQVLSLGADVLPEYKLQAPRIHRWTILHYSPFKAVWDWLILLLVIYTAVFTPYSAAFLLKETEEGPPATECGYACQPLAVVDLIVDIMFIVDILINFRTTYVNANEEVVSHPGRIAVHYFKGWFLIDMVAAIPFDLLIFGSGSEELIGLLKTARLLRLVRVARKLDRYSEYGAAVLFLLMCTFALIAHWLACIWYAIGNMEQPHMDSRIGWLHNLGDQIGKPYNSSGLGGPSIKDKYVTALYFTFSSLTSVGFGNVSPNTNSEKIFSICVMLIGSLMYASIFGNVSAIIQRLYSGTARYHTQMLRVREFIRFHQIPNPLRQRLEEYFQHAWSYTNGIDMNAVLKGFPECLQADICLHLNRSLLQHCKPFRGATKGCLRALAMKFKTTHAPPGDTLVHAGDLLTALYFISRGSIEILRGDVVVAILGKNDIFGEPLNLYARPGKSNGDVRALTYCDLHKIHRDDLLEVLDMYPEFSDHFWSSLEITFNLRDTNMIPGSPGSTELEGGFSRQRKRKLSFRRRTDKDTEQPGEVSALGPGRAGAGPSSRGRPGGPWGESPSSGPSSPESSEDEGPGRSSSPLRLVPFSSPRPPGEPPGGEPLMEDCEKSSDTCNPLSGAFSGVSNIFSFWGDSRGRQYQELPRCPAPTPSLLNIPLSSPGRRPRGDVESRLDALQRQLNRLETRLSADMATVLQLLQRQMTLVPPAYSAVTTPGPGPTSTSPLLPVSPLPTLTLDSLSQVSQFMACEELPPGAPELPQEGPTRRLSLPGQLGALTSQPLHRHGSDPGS

For `CCOC(=O)N1CCN(C(=O)CSCC(=O)Nc2nc(-c3ccc(-c4ccccc4)cc3)cs2)CC1`, which “hERG current change (%, negative = inhibition) at 1uM” value is on record?
Its value is 12.2%.

For `Cc1n[nH]c(=O)c2c(NC(=O)CSc3nnc(-c4ccco4)n3C)oc(C)c12`, which “hERG current change (%, negative = inhibition) at 1uM” value is on record?
The value was 14%.

How did the “hERG current change (%, negative = inhibition) at 1uM” value turn out when `Cc1ccc(C)c(C(=O)COC(=O)C2CCN(c3ccc(C(F)(F)F)cn3)CC2)c1` was run?
The value was 9.97%.

`CCOc1cccc(C(=O)NC(=S)Nc2ccc3c(c2)OCCO3)c1` was tested. Which “hERG current change (%, negative = inhibition) at 1uM” value did it give?
The value was 8.92%.

For `CCC1=C2CC[C@H]3C(=O)N(CC)C(=O)[C@H]3[C@H]2[C@@]2(Cc3ccccc3)C(=NCCOC)OC(=O)N2C1=O`, which “hERG current change (%, negative = inhibition) at 1uM” value is on record?
Its value is 10.3%.

For `Brc1nc(Br)n(Cc2ccccc2)n1`, which “hERG current change (%, negative = inhibition) at 1uM” value is on record?
The value was 18.9%.

With `CNC(=O)c1ccccc1-c1cn(C)c2ccccc2c1=O` as the molecule, how does the “hERG current change (%, negative = inhibition) at 1uM” value read?
Its value is 11.7%.

For `COc1ccccc1C(=O)Nc1nc(-c2cccs2)c(NC(C)=O)s1`, which “hERG current change (%, negative = inhibition) at 1uM” value is on record?
The value was 11.8%.

`O=c1c2cc(Br)ccc2nc(-c2cccc(Cl)c2)n1O` was tested. Which “hERG current change (%, negative = inhibition) at 1uM” value did it give?
Its value is 15.3%.

Which “hERG current change (%, negative = inhibition) at 1uM” value does the source give for `O=C(C1CC1)N1CCN(S(=O)(=O)c2ccc3c(c2)OCCO3)CC1` here?
Its value is 8.98%.

Which “hERG current change (%, negative = inhibition) at 1uM” value does the source give for `CN(C)C(CNC(C(=O)Nc1ccc([N+](=O)[O-])cc1Br)c1ccccc1)c1ccccc1` (stereo not shown) here?
The value was 11.9%.

Which “hERG current change (%, negative = inhibition) at 1uM” value does the source give for `O=c1[nH]ncc(N/N=C\c2cccs2)c1Cl` here?
The value was 10.8%.

For `CC1(C)CC(=O)C2=C(C1)Nc1ncnn1C2c1cccs1` (stereo not shown), which “hERG current change (%, negative = inhibition) at 1uM” value is on record?
The value was 9.58%.

For `O=C(NCC(c1ccco1)N1CCc2ccccc2C1)c1ccc(Cl)c([N+](=O)[O-])c1` (stereo not shown), which “hERG current change (%, negative = inhibition) at 1uM” value is on record?
Its value is -4.88%.

`O=C(COc1cccc2c1CCNC2=O)NC1CCCCC1` was tested. Which “hERG current change (%, negative = inhibition) at 1uM” value did it give?
Its value is 1.78%.

How did the “hERG current change (%, negative = inhibition) at 1uM” value turn out when `COc1cccc(OCCCN2CCCCCC2)c1.O=C(O)C(=O)O` was run?
The value was -11.5%.

Which “hERG current change (%, negative = inhibition) at 1uM” value does the source give for `COc1ccc(Cc2nc(C(=O)NCc3ccccc3OC)cs2)cc1` here?
Its value is 6.14%.

`Cc1ccc(-c2cc([C@H]3[C@@H]4C=CCC[C@@]4(C)C(=O)N3Cc3ccccc3)ccc2F)cc1` was tested. Which “hERG current change (%, negative = inhibition) at 1uM” value did it give?
Its value is 11.5%.

How did the “hERG current change (%, negative = inhibition) at 1uM” value turn out when `Cc1c(NC(=O)c2noc3c2CCc2ccccc2-3)c(=O)n(-c2ccccc2)n1C` was run?
Its value is -43.4%.

`O=C(/C=C/c1ccc(OCc2cccc(Cl)c2)cc1)N1CCOCC1` was tested. Which “hERG current change (%, negative = inhibition) at 1uM” value did it give?
Its value is 9.66%.

How did the “hERG current change (%, negative = inhibition) at 1uM” value turn out when `N#Cc1ccc2c(c1)NC(=O)C1CCCN21` (stereo not shown) was run?
Its value is 6.21%.

How did the “hERG current change (%, negative = inhibition) at 1uM” value turn out when `CCOc1ccc(C2Nc3ccc4ccccc4c3-c3c2c(=O)oc2ccccc32)cc1` (stereo not shown) was run?
The value was -0.571%.

`COC(=O)[C@@H]1C[C@@]2(O)[C@@H](O)[C@@H](O)[C@@H](O)C[C@H]2N1Cc1ccc(Cl)cc1` was tested. Which “hERG current change (%, negative = inhibition) at 1uM” value did it give?
The value was 15.5%.

Which “hERG current change (%, negative = inhibition) at 1uM” value does the source give for `COc1ccc(NC(=O)Cn2cc(S(=O)(=O)Cc3ccccc3)c3ccccc32)c(OC)c1` here?
The value was 10.2%.

Which “hERG current change (%, negative = inhibition) at 1uM” value does the source give for `C=CCn1c(=NC(=O)c2ccco2)sc2cc(C(=O)OCC)ccc21` here?
The value was 3.37%.

For `COC(=O)CSc1n[nH]c(-c2cccnc2)n1`, which “hERG current change (%, negative = inhibition) at 1uM” value is on record?
Its value is 5.43%.

For `O=C(/C=C/c1ccco1)c1ccc(NC(=O)C23CC4CC(CC(C4)C2)C3)cc1`, which “hERG current change (%, negative = inhibition) at 1uM” value is on record?
Its value is 7.94%.

Which “hERG current change (%, negative = inhibition) at 1uM” value does the source give for `Cc1cccc(N(C(=O)c2snc(C(N)=O)c2N)C(C(=O)NC2CCCC2)c2ccncc2)c1` (stereo not shown) here?
Its value is 9.7%.

For `O=C(CSC1=NS(=O)(=O)c2cc(F)ccc2N1)Nc1ccc(F)cc1`, which “hERG current change (%, negative = inhibition) at 1uM” value is on record?
Its value is 11.8%.

Which “hERG current change (%, negative = inhibition) at 1uM” value does the source give for `O=C(Nc1ccc(Cl)cc1)NN1CC(=O)N(c2cccc(C(F)(F)F)c2)CC1=O` here?
Its value is 21.4%.

For `CC(C)=C1C2C=CC1C(C(=O)Nc1cc(C)ccc1C)C2C(=O)O` (stereo not shown), which “hERG current change (%, negative = inhibition) at 1uM” value is on record?
Its value is 9.83%.

For `CC(=O)Nc1ccc(NC(=O)C(C)OC(=O)COc2ccc(Nc3ccccc3)cc2)cc1` (stereo not shown), which “hERG current change (%, negative = inhibition) at 1uM” value is on record?
The value was 15.6%.

How did the “hERG current change (%, negative = inhibition) at 1uM” value turn out when `O=C(COC(=O)c1ccccc1Br)Nc1cc(S(=O)(=O)N2CCOCC2)ccc1N1CCCC1` was run?
Its value is 17.8%.

Which “hERG current change (%, negative = inhibition) at 1uM” value does the source give for `COc1ccc(N2CCN(C(=O)C3COc4ccccc4O3)CC2)cc1` (stereo not shown) here?
The value was 0.903%.

`COc1ccccc1C(=O)NC(=O)COC(=O)Cc1n[nH]c(=O)c2ccccc12` was tested. Which “hERG current change (%, negative = inhibition) at 1uM” value did it give?
Its value is 3.95%.

Which “hERG current change (%, negative = inhibition) at 1uM” value does the source give for `CCc1cccc(CC)c1NC(=O)c1cccc(N)c1` here?
Its value is -0.176%.

Which “hERG current change (%, negative = inhibition) at 1uM” value does the source give for `Cc1ccc(/C=N/NC(=O)Cn2nnc(N)n2)o1` here?
The value was -0.222%.

How did the “hERG current change (%, negative = inhibition) at 1uM” value turn out when `COc1ccc(OCC(=O)N/N=C2\CCc3ccccc32)cc1` was run?
Its value is 1.57%.

Which “hERG current change (%, negative = inhibition) at 1uM” value does the source give for `CCCCc1nnc(NC(=O)C2CC(=O)N(Cc3ccccc3)C2)s1` (stereo not shown) here?
The value was -1.8%.

For `O=C(CCCc1ccccc1)NCc1cn2ccsc2n1`, which “hERG current change (%, negative = inhibition) at 1uM” value is on record?
Its value is 4.27%.

With `Cc1cc(C)n(CC2CC(=O)N(c3ccc(Cl)cc3)C2=O)n1` (stereo not shown) as the molecule, how does the “hERG current change (%, negative = inhibition) at 1uM” value read?
The value was 11.8%.

Which “hERG current change (%, negative = inhibition) at 1uM” value does the source give for `NS(=O)(=O)c1ccc(N2N=C(c3ccccc3)CC2c2ccc(F)cc2)cc1` (stereo not shown) here?
Its value is 10.9%.

For `O=C(CN1CCN(c2ccc(O)cc2)CC1)Nc1cc(S(=O)(=O)N2CCCC2)ccc1Cl`, which “hERG current change (%, negative = inhibition) at 1uM” value is on record?
The value was 11%.

Reference: PMC4336329 (PLoS ONE, 2015)
